About 910 (0.23%) of roughly 390,000 compounds were called active. Inconclusive results (about 5%) are left out. Calls follow the shape of the dose curve; as a rule, active = well fitted inhibition curve with a large enough effect; inconclusive = small, poorly fitted or top-dose-only effect; inactive = no such curve, though single readings can be large or run the other way. This is a selection; strong and weak results do not stand in their true shares.
Molecular target: Ubiquitin carboxyl-terminal hydrolase 1 (Homo sapiens) (UniProt O94782)
UniProt O94782, sequence (O94782 whole entry, looked up): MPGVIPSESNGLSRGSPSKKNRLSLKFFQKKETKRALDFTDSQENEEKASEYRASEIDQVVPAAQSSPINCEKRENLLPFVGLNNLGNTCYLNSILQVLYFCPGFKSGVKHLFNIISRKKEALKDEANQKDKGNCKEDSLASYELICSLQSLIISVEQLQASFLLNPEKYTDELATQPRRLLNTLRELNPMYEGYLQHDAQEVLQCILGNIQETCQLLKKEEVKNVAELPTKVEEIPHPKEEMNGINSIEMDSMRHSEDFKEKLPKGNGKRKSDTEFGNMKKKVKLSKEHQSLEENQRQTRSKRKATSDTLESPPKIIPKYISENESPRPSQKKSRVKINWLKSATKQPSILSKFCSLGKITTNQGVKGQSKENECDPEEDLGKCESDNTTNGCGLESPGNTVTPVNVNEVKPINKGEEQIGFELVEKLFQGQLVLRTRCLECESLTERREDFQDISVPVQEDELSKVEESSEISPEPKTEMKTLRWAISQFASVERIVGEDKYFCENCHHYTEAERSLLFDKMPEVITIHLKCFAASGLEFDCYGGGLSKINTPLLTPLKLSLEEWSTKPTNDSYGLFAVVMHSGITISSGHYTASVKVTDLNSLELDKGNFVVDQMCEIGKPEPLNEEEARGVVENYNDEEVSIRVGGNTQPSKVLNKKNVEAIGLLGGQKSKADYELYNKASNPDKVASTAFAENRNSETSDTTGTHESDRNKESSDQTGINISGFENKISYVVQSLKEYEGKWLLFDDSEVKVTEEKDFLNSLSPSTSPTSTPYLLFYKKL
Experiment: Inhibitors of USP1/UAF1: Primary Screen; also: nearly all actives have a fitted effect of over 60% in size
Conditions: recombinant USP1/UAF1, Ub-Rhodamine cleavage fluorescence; activity change, negative = inhibition: at 57.1 µM (top of the series)
Summary of the method: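 In this screen, compounds sit with the deubiquitinase complex (1nM) for 15 min at room temperature before Ub-Rho is added at 150nM final. Fluorescence rise is then followed for 6 reads every 60 seconds.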
% is scaled to controls: 0 for no effect and ±100 for the full control effect; potency is read from the fitted curve at half-maximal effect.

Compound	activity change, negative = inhibition	Potency
Cc1ccc(S(=O)(=O)c2nc(-c3ccco3)oc2SC(C)C)cc1	inactive: -4.16%	–
N#Cc1c(NC(=O)c2ccc(Br)o2)n(-c2ccccc2)c2nc3ccccc3nc12	–	active: 6.31 µM
COC(=O)C1C(O)CCC2CN3CCc4c([nH]c5ccccc45)C3CC21 (centres undefined)	inactive: -11.1%	–
Cc1ccc(Nc2nc(Nc3ccc(C)c(C)c3)nc(N3CCOCC3)n2)cc1C	inactive: 25.5%	–
C=CCC[C@H](Cc1ccc(F)cc1)C(=O)OC[C@H](Cc1c[nH]c2ccccc12)NC(=O)[C@H](CC=C)CC(=O)NCCO	inactive: -19%	–
Cc1ccc(S(=O)c2ccc([N+](=O)[O-])c3nonc23)cc1 (centres undefined)	–	active: 15.8 µM
C[C@H]1NC(=O)[C@]2(C)[C@@H](c3ccccc3)[C@H]3COc4ccccc4[C@H]3N2C1=O	inactive: -0.914%	–
COc1ccc(-n2c(/C=C/c3cc(OC)c(OC)cc3OC)nc3cc4ccccc4cc3c2=O)cc1Cl	inactive: 77.7%	–
COc1ccc(/C=C/c2nc(C#N)c(NC3CCCCC3)o2)cc1OC	inactive: -5.61%	–
CCOC(=O)[C@H]1[C@H]2COc3cc(OC)ccc3[C@@H]2N2C(=O)N(c3ccc(Br)cc3)C(=O)[C@@]12C	inactive: -9.27%	–
O=C1OC[C@@H]2CCCN2C(=O)[C@H](CC(=O)N(CCO)Cc2ccccc2)C/C=C\CC[C@H]1Cc1ccc(F)cc1	inactive: -15.5%	–
C=CC[C@@H](CC(=O)N[C@@H](CO)Cc1ccccc1)C(=O)N[C@@H](COC(=O)[C@H](CC=C)CC(=O)OC(C)(C)C)Cc1c[nH]c2ccccc12	inactive: -25.3%	–
O=C(CSc1nccn1Cc1ccc(F)cc1)NC1CCCC1	inactive: -20.8%	–
CCN1C(=O)[C@@H]2[C@@H](c3ccc(-c4ccc(C(C)=O)cc4)cc3)N3CCC[C@@]3(C(=O)OC)[C@@H]2C1=O	inactive: -16.4%	–
CCN1C(=O)/C(=C\c2cn(-c3ccccc3)nc2-c2cccnc2)SC1=S	inactive: -15.7%	–
C(C#CCCCCCCCCC[n+]1ccccc1)#CCCCCCCCCC[n+]1ccccc1	inactive: 1.74%	–
CCC(Sc1nc2ccncc2[nH]1)C(=O)Nc1cc(Cl)ccc1C (centres undefined)	inactive: -13.3%	–
Cc1ccc([C@H]2C[C@@H](n3cc(-c4ccc(F)cc4)nn3)[C@H](O)CN2C(=O)c2cccs2)cc1	inactive: -26.6%	–
OCC[C@@H]1C[C@@H](O)[C@H](O)[C@@]2(CCCc3ccccc3O2)O1	inactive: -16.9%	–
COC(=O)CNC(=O)C1CCN(S(=O)(=O)c2cccc3nsnc23)CC1	inactive: -16.3%	–
CCc1ccc(NC(=O)C2CCCN2S(=O)(=O)c2ccc3c(c2)n(C)c(=O)c(=O)n3C)cc1 (centres undefined)	–	inactive

Compound	activity change, negative = inhibition	Potency
CCOC(=O)N1CCN(c2cc(NCCC(=O)O)c3c4c(onc24)-c2ccccc2C3=O)CC1	–	active: 14.1 µM
COc1ccc(NC(=O)Cn2nnc(C(=O)NCc3ccc4c(c3)OCO4)c2N)cc1	inactive: -9.49%	–
CN1CCc2c(sc(NC(=O)CSc3ccc(F)cc3)c2-c2nc3ccccc3s2)C1	inactive: 91.9%	–
OCC[C@@H]1C[C@@H](O)[C@H](O)[C@]2(CCCc3ccccc3O2)O1	inactive: 21.3%	–
CCOC(=O)c1ccc(NCn2c(=O)oc3ccccc32)cc1	–	active: 25.1 µM
CCOC(=O)C(C(=O)OCC)c1cc(Br)c2noc3c2c1C(=O)c1ccccc1-3	inactive: 43.8%	–
Cc1ccc(C2c3c(-c4ccccc4O)n[nH]c3C(=O)N2CCc2ccccc2)cc1 (centres undefined)	inactive: 31%	–
CN1CCN(C(=O)C2=C[C@H](c3ccc4c(c3)OCO4)C[C@H](OCc3ccc(CO)cc3)O2)CC1	inactive: -10.8%	–
O=C(NCc1nc2ccccc2[nH]1)C1=C[C@H](C2CCCCC2)C[C@H](OCCCCO)O1	inactive: -30.8%	–
CCOc1ccc(NC(=O)CSc2nccn2Cc2ccco2)cc1	inactive: -23%	–
Cc1cc(C)cc(OCC(=O)NCCc2nc3ccccc3[nH]2)c1	inactive: 0.709%	–
CCO[C@@H]1OC(C(=O)O)=C[C@H](c2ccc3c(c2)OCO3)[C@H]1CCCO	inactive: -28.2%	–
C[C@@H](NC(=O)c1[nH]cnc1C(=O)Nc1cccc(Cl)c1)c1ccccc1	inactive: -28.8%	–
CCOC(=O)[C@@H]1[C@H]2COc3ccc(Br)cc3[C@H]2N2C(=O)N(c3ccc(C)cc3)C(=O)[C@]12C	inactive: -12.1%	–
C[C@@H]1CCC[C@@]2(O[C@H](CCO)C[C@H](O)[C@H]2O)O1	inactive: -16%	–
O=C1Nc2ccccc2C1=Nc1ccc(-c2nnc3n2CCCCC3)cc1	inactive: -8.27%	–
Cc1ccc(N2C(=O)[C@@H]3[C@H](C2=O)C2c4ccccc4C=CN2[C@@H]3C(=O)c2ccco2)cc1 (some centres undefined)	–	active: 15.8 µM
C[C@@H]1CN([C@@H](C)CO)C(=O)c2cc(Br)cnc2O[C@H]1CN(C)C(=O)Nc1ccc2c(c1)OCO2	inactive: -16.9%	–
COc1cc(NC(=O)c2ccccc2)ccc1NC(=O)c1cc2ccccc2o1	inactive: -18.6%	–
C[C@@H]1CN([C@H](C)CO)C(=O)CCCn2nncc2CO[C@@H]1CN(C)C(=O)Nc1cccc2ccccc12	inactive: -3.02%	–
CCc1ccc(-c2nc3ccc(Br)cc3c(C(=O)O)c2C)s1	inactive: -13%	–

Compound	activity change, negative = inhibition	Potency
Cc1nn(CCCC(=O)NCc2ccccc2)c(=O)c2nn(-c3ccccc3)c(C)c12	inactive: -6.43%	–
CCCN1C(=O)/C(=C/c2ccc(N3CCCC3)c(C)c2)NC1=S	inactive: 39.8%	–
CCOc1cc(/C=C(\C#N)c2nc(-c3cccs3)c(NC(C)=O)s2)ccc1O	inactive: 48.4%	–
Cc1ccc(S(=O)(=O)/N=C2\C=C(Nc3cccc(C(=O)O)c3)C(=O)c3ccccc32)c(C)c1	–	active: 10 µM
C[C@H]1CCC[C@]2(O[C@@H](CCO)C[C@H](O)[C@H]2O)O1	inactive: -17.4%	–
N#C/C(=C/c1ccc(N2CCOCC2)o1)c1ccc(Br)cc1	inactive: 107%	–
O=C(N[C@H]1C/C=C\C[C@@H](CC(=O)N(CCO)Cc2ccccc2)C(=O)N2CCC[C@H]2COC1=O)OCC1c2ccccc2-c2ccccc21	inactive: -16.1%	–
C[C@@]12CCC[C@H](O1)[C@@H]([C@H](O)c1ccccc1)O2	inactive: -11.7%	–
CC(=O)c1ccc(N2CCN(C(=O)Nc3cccc(F)c3)CC2)cc1	inactive: 3.08%	–
C#CCOCCOCCOCCNc1nc(N2CCOCC2)nc(N2CCN(C(=O)[C@H](Cc3cc4ccccc4[nH]3)n3cc([C@@H](N)C(C)CC)nn3)CC2)n1 (some centres undefined)	–	active: 44.7 µM
CNC[C@H](O)c1ccc(O)c(O)c1	inactive: -25.6%	–
COc1cc(C=c2c3ccccc3n3c2cc(-c2ccccc2)[n+]3C)cc(OC)c1OC	–	active: 2.24 µM
OCC[C@H]1C[C@@H](O)[C@H](O)[C@]2(OCc3ccccc32)O1	inactive: -19.5%	–
COC(=O)[C@@]12CCCCN1[C@H](c1ccc(-c3cccc(Cl)c3)cc1)[C@H]1C(=O)N(C)C(=O)[C@H]12	inactive: -14.9%	–
COc1cc(NC(=O)c2cc(S(=O)(=O)N3CCc4ccccc43)cn2C)cc(OC)c1OC	inactive: -14.2%	–
CC(=O)Nc1sc(/C(C#N)=C/c2ccc(Cl)c(Cl)c2)nc1-c1ccc(C)cc1	inactive: 17.4%	–
O=S(=O)(Nc1cccc(-c2ccc(N3CCCCCC3)nn2)c1)c1cccc(F)c1	inactive: -17.9%	–
CCOC(=O)/C(=C/c1ccc(N2CCC(c3ccccc3)=N2)cc1)C(C)=O	–	active: 4.47 µM
COc1ccc(CN2CCN(Cc3cc(=O)oc4cc(C)ccc34)CC2)c(OC)c1OC	inactive: -20.8%	–
CN(C)CCNC(=O)Cn1nc(C(F)F)cc1C1CC1	inactive: 27.8%	–
O=C(CSc1nnc2sc3ccccc3n12)c1ccco1	inactive: 35.8%	–

Compound	activity change, negative = inhibition	Potency
O=S(=O)(N[C@H]1C[C@@H](NS(=O)(=O)OCC(Cl)(Cl)Cl)C2CCCCC21)OCC(Cl)(Cl)Cl (some centres undefined)	inactive: -7.62%	–
CCOc1cc(CNc2ccc(O)cc2)ccc1OCc1ccc(Cl)cc1Cl	–	active: 8.91 µM
CC(C)(C)OC(=O)C[C@@H]1C/C=C\C[C@@H](CC(=O)N[C@@H](CO)Cc2ccccc2)C(=O)NCCOC1=O	inactive: -16%	–
CCCCn1c(NS(=O)(=O)c2ccccc2)c(S(=O)(=O)c2ccc(C)cc2)c2nc3ccccc3nc21	–	active: 28.2 µM
COc1cccc(S(=O)(=O)N(C)C[C@@H]2OCc3cnnn3CCCC(=O)N([C@@H](C)CO)C[C@H]2C)c1	inactive: -19.6%	–
COC(=O)C1CCN(c2nc3ccccc3nc2C(C#N)C(=O)OCC(C)C)CC1 (centres undefined)	inactive: 28.6%	–
C[C@H]1NC(=O)[C@@]2(C)[C@@H](c3ccccc3)[C@H]3COc4ccccc4[C@H]3N2C1=O	inactive: -8.47%	–
CCOC(=O)[C@@H]1[C@H]2COc3ccccc3[C@H]2N2C(=O)N(c3ccc(Cl)cc3)C(=O)[C@@]12C	inactive: -20.2%	–
O=C(CSCc1ccc(F)cc1)NCc1ccc(F)cc1	inactive: -7.47%	–
Cc1cc(NC(=O)/C(C#N)=C/c2ccc(-c3ccc(SC(F)F)cc3)o2)n(-c2ccccc2)n1	inactive: -24.4%	–
C=CCC[C@@H](Cc1ccc(F)cc1)C(=O)OC[C@H](Cc1c[nH]c2ccccc12)NC(=O)[C@@H](CC=C)CC(=O)NCCO	inactive: -24.1%	–
COc1ccc(N2CCN(C(=O)C3CCCN(S(=O)(=O)c4ccc5c(c4)oc(=O)n5C)C3)CC2)cc1 (centres undefined)	inactive: -9.55%	–
CSc1ccc(CCNC(=O)Cn2ncc3c([nH]c4ccccc43)c2=O)cc1	inactive: -19.4%	–
Nc1nnc2c(n1)CCCC2	–	active: 15.8 µM
C[C@@H]1CN([C@@H](C)CO)C(=O)CCCn2nncc2CO[C@H]1CN(C)S(=O)(=O)c1ccccc1C#N	inactive: -23.1%	–
CC(C)(C)OC(=O)C[C@@H]1C/C=C\C[C@H](CC(=O)N[C@H](CO)Cc2ccccc2)C(=O)N[C@H](C(C)(C)C)COC1=O	inactive: -26.6%	–
COc1ccc(NC(=O)CC2C(=O)N(c3cccc(C)c3)C(=O)N2C2CCCCC2)cc1 (centres undefined)	inactive: -19.2%	–
O=C(Cc1ccccc1)Nn1c(O)c(/C=C2\C=Nc3ccccc32)sc1=S	–	active: 31.6 µM
COC(CNC(=O)c1ccc2c3c(onc13)-c1ccccc1C2=O)OC	–	active: 17.8 µM
CC(C)(C)OC(=O)C[C@H]1C/C=C\C[C@@H](CC(=O)N[C@@H](CO)Cc2ccccc2)C(=O)N2CCC[C@@H]2COC1=O	inactive: -26.2%	–
C[C@@H]1COC(=O)[C@H](NC(=O)OCC2c3ccccc3-c3ccccc32)C/C=C\C[C@@H](CC(=O)N[C@H](CO)Cc2ccccc2)C(=O)N1	inactive: -26.3%	–

Source: PubChem BioAssay AID743255 (National Center for Advancing Translational Sciences (NCATS), 2014)
